Data: paper PMC11290676
No constants are given. Whether binding was seen depends on the method and setting. Binding seen in cells or lysates may run through a third protein. Some entries that bind do so weakly or less than the wild type.

Protein sequences, listed by entry. Tags and fused reporters are not part of them. Lines headed by an entry give the natural chain unless they say otherwise; changes in a name come on top. Chains listed by the source or under a name are the forms on record and can include a tag or linker. Residues count along the entry.
UniProt Q91813: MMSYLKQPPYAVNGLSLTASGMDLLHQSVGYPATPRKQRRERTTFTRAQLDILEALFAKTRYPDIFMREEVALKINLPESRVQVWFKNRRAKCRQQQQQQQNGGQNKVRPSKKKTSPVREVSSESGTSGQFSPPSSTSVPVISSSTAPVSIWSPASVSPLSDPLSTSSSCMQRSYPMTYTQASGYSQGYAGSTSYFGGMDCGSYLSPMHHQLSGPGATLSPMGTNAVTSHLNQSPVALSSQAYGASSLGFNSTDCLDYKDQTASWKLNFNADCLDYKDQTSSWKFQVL
Myc-Otx2 ΔAD (region containing the homeodomain and the repression domain, aa 1-184): residues 1-184 of Q91813
Myc-Otx2-4A (nonphosphorylatable mutant of Otx2) (Q91813, form named): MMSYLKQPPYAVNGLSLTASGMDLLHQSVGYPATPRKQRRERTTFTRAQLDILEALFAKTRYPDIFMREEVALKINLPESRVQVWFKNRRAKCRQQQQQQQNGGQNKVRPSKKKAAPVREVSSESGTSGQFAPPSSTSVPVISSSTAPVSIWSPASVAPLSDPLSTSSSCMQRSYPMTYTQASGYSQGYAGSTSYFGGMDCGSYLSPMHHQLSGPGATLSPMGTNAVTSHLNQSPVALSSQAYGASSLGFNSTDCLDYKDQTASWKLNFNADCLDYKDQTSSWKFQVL
Myc-Otx2-4E (phosphomimetic mutant of Otx2) (Q91813, form named): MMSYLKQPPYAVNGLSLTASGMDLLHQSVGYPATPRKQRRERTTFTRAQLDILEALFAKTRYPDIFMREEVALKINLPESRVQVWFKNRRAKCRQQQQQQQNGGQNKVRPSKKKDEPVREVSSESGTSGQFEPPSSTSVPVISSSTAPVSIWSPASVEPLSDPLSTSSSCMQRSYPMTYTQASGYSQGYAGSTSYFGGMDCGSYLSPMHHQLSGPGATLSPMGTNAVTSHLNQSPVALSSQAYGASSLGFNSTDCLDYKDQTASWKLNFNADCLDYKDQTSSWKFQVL
Venus-fused Zbtb11 (Venus-Zbtb11), full-length Zbtb11.S (A0A1L8H8N5, form named): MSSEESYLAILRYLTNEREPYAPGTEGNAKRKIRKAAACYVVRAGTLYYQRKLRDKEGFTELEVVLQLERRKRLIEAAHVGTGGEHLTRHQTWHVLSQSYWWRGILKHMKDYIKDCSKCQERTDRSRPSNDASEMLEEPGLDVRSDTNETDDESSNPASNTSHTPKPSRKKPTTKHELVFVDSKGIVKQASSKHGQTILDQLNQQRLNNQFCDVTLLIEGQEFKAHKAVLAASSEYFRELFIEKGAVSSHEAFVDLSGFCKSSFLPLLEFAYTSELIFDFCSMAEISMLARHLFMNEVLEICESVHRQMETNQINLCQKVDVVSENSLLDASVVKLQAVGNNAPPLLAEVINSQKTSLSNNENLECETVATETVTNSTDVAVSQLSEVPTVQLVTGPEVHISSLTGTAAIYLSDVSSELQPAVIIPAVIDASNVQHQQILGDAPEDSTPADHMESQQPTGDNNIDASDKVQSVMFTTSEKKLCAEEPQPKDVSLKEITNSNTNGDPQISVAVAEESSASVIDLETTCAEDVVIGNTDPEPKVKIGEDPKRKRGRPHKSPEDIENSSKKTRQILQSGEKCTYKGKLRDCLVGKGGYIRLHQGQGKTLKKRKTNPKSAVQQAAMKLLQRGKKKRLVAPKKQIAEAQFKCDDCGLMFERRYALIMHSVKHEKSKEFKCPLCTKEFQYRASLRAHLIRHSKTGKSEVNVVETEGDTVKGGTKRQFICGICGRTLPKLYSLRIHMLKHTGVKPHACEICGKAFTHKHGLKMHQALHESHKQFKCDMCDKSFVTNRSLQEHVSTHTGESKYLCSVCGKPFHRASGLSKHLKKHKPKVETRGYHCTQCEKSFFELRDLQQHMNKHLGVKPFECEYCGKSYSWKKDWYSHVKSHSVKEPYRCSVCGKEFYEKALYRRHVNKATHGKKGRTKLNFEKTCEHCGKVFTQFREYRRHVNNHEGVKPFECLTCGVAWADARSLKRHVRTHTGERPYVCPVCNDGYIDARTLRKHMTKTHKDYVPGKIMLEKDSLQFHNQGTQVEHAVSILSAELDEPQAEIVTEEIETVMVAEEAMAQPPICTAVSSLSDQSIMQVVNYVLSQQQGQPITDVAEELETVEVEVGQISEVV
Venus-NLS-BTB (N-terminal region of Zbtb11.S including the HHCC motif and BTB domain, aa 1-580, with SV40 large T NLS) (A0A1L8H8N5, form named): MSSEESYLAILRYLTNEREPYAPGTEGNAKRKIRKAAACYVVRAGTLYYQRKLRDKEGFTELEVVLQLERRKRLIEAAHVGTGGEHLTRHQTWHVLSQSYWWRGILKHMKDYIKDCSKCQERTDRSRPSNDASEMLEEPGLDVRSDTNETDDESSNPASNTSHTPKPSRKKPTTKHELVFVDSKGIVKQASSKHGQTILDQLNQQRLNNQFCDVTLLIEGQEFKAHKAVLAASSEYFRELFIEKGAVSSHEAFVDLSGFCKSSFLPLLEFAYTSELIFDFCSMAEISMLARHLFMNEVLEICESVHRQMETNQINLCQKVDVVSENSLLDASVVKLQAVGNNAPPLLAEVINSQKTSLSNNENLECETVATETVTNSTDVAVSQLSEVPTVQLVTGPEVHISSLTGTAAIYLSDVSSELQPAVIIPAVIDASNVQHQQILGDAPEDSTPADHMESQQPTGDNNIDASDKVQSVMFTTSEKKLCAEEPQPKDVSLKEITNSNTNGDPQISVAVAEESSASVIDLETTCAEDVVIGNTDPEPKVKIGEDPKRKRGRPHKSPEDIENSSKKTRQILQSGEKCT
Venus-Znf (C-terminal region of Zbtb11.S containing the Znf domains, CR2 and CR3, aa 622-1118) (A0A1L8H8N5, form named): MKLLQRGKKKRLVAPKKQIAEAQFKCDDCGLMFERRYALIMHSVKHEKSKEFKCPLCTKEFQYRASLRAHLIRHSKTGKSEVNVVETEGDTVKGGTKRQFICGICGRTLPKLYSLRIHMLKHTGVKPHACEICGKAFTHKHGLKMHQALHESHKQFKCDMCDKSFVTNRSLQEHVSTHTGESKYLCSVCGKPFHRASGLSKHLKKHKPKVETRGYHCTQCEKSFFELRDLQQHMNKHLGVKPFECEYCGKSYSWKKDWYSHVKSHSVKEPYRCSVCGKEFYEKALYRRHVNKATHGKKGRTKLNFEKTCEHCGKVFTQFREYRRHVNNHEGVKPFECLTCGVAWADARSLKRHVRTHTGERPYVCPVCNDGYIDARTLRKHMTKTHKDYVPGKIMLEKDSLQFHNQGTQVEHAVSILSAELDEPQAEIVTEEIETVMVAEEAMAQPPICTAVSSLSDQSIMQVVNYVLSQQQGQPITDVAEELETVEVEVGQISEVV

How the values were obtained:
Assay in all cases: co-IP; lysates of mRNA-injected embryos at gastrula stages (10.5-11); immunoprecipitated with anti-Myc antibody (2 h, 4°C) and protein G- or protein A-agarose beads; western blot with anti-GFP, anti-HA or anti-Myc; in Fig 8B with co-expressed Venus-Zbtb11 or Venus-NLS
[1] = target: Myc-Otx2-4A (nonphosphorylatable mutant of Otx2) (UniProt Q91813)
[2] = target: Myc-Otx2-4E (phosphomimetic mutant of Otx2) (UniProt Q91813)
[3] = target: Myc-tagged Otx2 (Myc-Otx2), full length, wild type (UniProt Q91813)
[4] = target: Myc-tagged Zbtb11 (Myc-Zbtb11), full-length Zbtb11.S (X. laevis)
[5] = target: Myc-Otx2 ΔAD (region containing the homeodomain and the repression domain, aa 1-184) (UniProt Q91813)

Substance	binding [1]	binding [2]	binding [3]	binding [4]	binding [5]
HA-tagged Zbtb11 (HA-Zbtb11), full-length Zbtb11.S (from UniProt A0A1L8H8N5 1-1118)	binds weakly	binds	binds	–	–
Venus-NLS-BTB (N-terminal region of Zbtb11.S including the HHCC motif and BTB domain, aa 1-580, with SV40 large T NLS) (from UniProt A0A1L8H8N5 1-580) (domain or fragment)	–	–	no binding	binds	–
Venus-Znf (C-terminal region of Zbtb11.S containing the Znf domains, CR2 and CR3, aa 622-1118) (from UniProt A0A1L8H8N5 622-1118) (domain or fragment)	–	–	binds	binds	–
Venus-fused Zbtb11 (Venus-Zbtb11), full-length Zbtb11.S (from UniProt A0A1L8H8N5 1-1118)	–	–	binds	binds	binds
